Results: the supplement of paper PMC11876631
± gives the standard deviation of the averaged measurements. Laboratory Escherichia coli strains with one amino-acid change in an essential protein, pooled on minimal glucose agar with carbenicillin or gentamicin at twice the control MIC (plus kanamycin and chloramphenicol for the plasmids), 48 h. Fold change of barcode share against drug-free plates; higher = less susceptible. Active = above 20 in both replicates (the paper's putatively resistant). '<' = one read or none on drug, '>' = one read or none on a drug-free plate. Shares are relative, so most strains fall below 1 when a few take over. Listed are strains with at least 15 reads on both drug-free plates, and hits; most hits rest on fewer reference reads. Replicate rank correlation about 0.5. Edits are read from barcodes.

B1: coaD V116W (protein)
chain: MQKRAIYPGTFDPITNGHIDIVTRATQMFDHVILAIAASPSKKPMFTLEERVALAQQATAHLGNVEVVGFSDLMANFARNQHATVLIRGLRAVADFEYEMQLAHMNRHLMPELESWFLMPSKEWSFISSSLVKEVARHQGDVTHFLPENVHQALMAKLA
B2: coaD F117A (protein)
chain: MQKRAIYPGTFDPITNGHIDIVTRATQMFDHVILAIAASPSKKPMFTLEERVALAQQATAHLGNVEVVGFSDLMANFARNQHATVLIRGLRAVADFEYEMQLAHMNRHLMPELESVALMPSKEWSFISSSLVKEVARHQGDVTHFLPENVHQALMAKLA
B3: coaD L118W (protein)
chain: MQKRAIYPGTFDPITNGHIDIVTRATQMFDHVILAIAASPSKKPMFTLEERVALAQQATAHLGNVEVVGFSDLMANFARNQHATVLIRGLRAVADFEYEMQLAHMNRHLMPELESVFWMPSKEWSFISSSLVKEVARHQGDVTHFLPENVHQALMAKLA
B4: coaD F117P (protein)
chain: MQKRAIYPGTFDPITNGHIDIVTRATQMFDHVILAIAASPSKKPMFTLEERVALAQQATAHLGNVEVVGFSDLMANFARNQHATVLIRGLRAVADFEYEMQLAHMNRHLMPELESVPLMPSKEWSFISSSLVKEVARHQGDVTHFLPENVHQALMAKLA
B5: coaD F117W (protein)
chain: MQKRAIYPGTFDPITNGHIDIVTRATQMFDHVILAIAASPSKKPMFTLEERVALAQQATAHLGNVEVVGFSDLMANFARNQHATVLIRGLRAVADFEYEMQLAHMNRHLMPELESVWLMPSKEWSFISSSLVKEVARHQGDVTHFLPENVHQALMAKLA
B6: cysB L161P (protein)
chain: MKLQQLRYIVEVVNHNLNVSSTAEGLYTSQPGISKQVRMLEDELGIQIFSRSGKHLTQVTPAGQEIIRIAREVLSKVDAIKSVAGEHTWPDKGSLYIATTHTQARYALPNVIKGFIERYPRVSLHMHQGSPTQIADAVSKGNADFAIATEALHLYEDLVMPPCYHWNRAIVVTPDHPLAGKKAITIEELAQYPLVTYTFGFTGRSELDTAFNRAGLTPRIVFTATDADVIKTYVRLGLGVGVIASMAVDPVADPDLVRVDAHDIFSHSTTKIGFRRSTFLRSYMYDFIQRFAPHLTRDVVDAAVALRSNEEIEVMFKDIKLPEK
B7: cysB F316A (protein)
chain: MKLQQLRYIVEVVNHNLNVSSTAEGLYTSQPGISKQVRMLEDELGIQIFSRSGKHLTQVTPAGQEIIRIAREVLSKVDAIKSVAGEHTWPDKGSLYIATTHTQARYALPNVIKGFIERYPRVSLHMHQGSPTQIADAVSKGNADFAIATEALHLYEDLVMLPCYHWNRAIVVTPDHPLAGKKAITIEELAQYPLVTYTFGFTGRSELDTAFNRAGLTPRIVFTATDADVIKTYVRLGLGVGVIASMAVDPVADPDLVRVDAHDIFSHSTTKIGFRRSTFLRSYMYDFIQRFAPHLTRDVVDAAVALRSNEEIEVMAKDIKLPEK
B8: cysB V240P (protein)
chain: MKLQQLRYIVEVVNHNLNVSSTAEGLYTSQPGISKQVRMLEDELGIQIFSRSGKHLTQVTPAGQEIIRIAREVLSKVDAIKSVAGEHTWPDKGSLYIATTHTQARYALPNVIKGFIERYPRVSLHMHQGSPTQIADAVSKGNADFAIATEALHLYEDLVMLPCYHWNRAIVVTPDHPLAGKKAITIEELAQYPLVTYTFGFTGRSELDTAFNRAGLTPRIVFTATDADVIKTYVRLGLGPGVIASMAVDPVADPDLVRVDAHDIFSHSTTKIGFRRSTFLRSYMYDFIQRFAPHLTRDVVDAAVALRSNEEIEVMFKDIKLPEK
B9: cysC V29Q (protein)
chain: MALHDENVVWHSHPVTVQQRELHHGHRGQVLWFTGLSGSGKSTVAGALEEALHKLGVSTYLLDGDNVRHGLCSDLGFSDADRKENIRRVGEVANLMVEAGLVVLTAFISPHRAERQMVRERVGEGRFIEVFVDTPLAICEARDPKGLYKKARAGELRNFTGIDSVYEAPESAEIHLNGEQLVTNLVQQLLDLLRQNDIIRS
B10: cysC V30D (protein)
chain: MALHDENVVWHSHPVTVQQRELHHGHRGVDLWFTGLSGSGKSTVAGALEEALHKLGVSTYLLDGDNVRHGLCSDLGFSDADRKENIRRVGEVANLMVEAGLVVLTAFISPHRAERQMVRERVGEGRFIEVFVDTPLAICEARDPKGLYKKARAGELRNFTGIDSVYEAPESAEIHLNGEQLVTNLVQQLLDLLRQNDIIRS
B11: tsaD V131A (protein)
chain: MRVLGIETSCDETGIAIYDDEKGLLANQLYSQVKLHADYGGVVPELASRDHVRKTVPLIQAALKESGLTAKDIDAVAYTAGPGLVGALLVGATVGRSLAFAWDVPAIPVHHMEGHLLAPMLEDNPPEFPFAALLVSGGHTQLISVTGIGQYELLGESIDDAAGEAFDKTAKLLGLDYPGGPLLSKMAAQGTAGRFVFPRPMTDRPGLDFSFSGLKTFAANTIRDNGTDDQTRADIARAFEDAVVDTLMIKCKRALDQTGFKRLVMAGGVSANRTLRAKLAEMMKKRRGEVFYARPEFCTDNGAMIAYAGMVRFKAGATADLGVSVRPRWPLAELPAA
B12: tsaD V131W (protein)
chain: MRVLGIETSCDETGIAIYDDEKGLLANQLYSQVKLHADYGGVVPELASRDHVRKTVPLIQAALKESGLTAKDIDAVAYTAGPGLVGALLVGATVGRSLAFAWDVPAIPVHHMEGHLLAPMLEDNPPEFPFWALLVSGGHTQLISVTGIGQYELLGESIDDAAGEAFDKTAKLLGLDYPGGPLLSKMAAQGTAGRFVFPRPMTDRPGLDFSFSGLKTFAANTIRDNGTDDQTRADIARAFEDAVVDTLMIKCKRALDQTGFKRLVMAGGVSANRTLRAKLAEMMKKRRGEVFYARPEFCTDNGAMIAYAGMVRFKAGATADLGVSVRPRWPLAELPAA
B13: ispU L206W (protein)
chain: MMLSATQPLSEKLPAHGCRHVAIIMDGNGRWAKKQGKIRAFGHKAGAKSVRRAVSFAANNGIEALTLYAFSSENWNRPAQEVSALMELFVWALDSEVKSLHRHNVRLRIIGDTSRFNSRLQERIRKSEALTAGNTGLTLNIAANYGGRWDIVQGVRQLAEKVQQGNLQPDQIDEEMLNQHVCMHELAPVDLVIRTGGEHRISNFLWWQIAYAELYFTDVLWPDFDEQDFEGALNAFANRERRFGGTEPGDETA
B14: tyrS V307W (protein)
chain: MASSNLIKQLQERGLVAQVTDEEALAERLAQGPIALYCGFDPTADSLHLGHLVPLLCLKRFQQAGHKPVALVGGATGLIGDPSFKAAERKLNTEETVQEWVDKIRKQVAPFLDFDCGENSAIAANNYDWFGNMNVLTFLRDIGKHFSVNQMINKEAVKQRLNREDQGISFTEFSYNLLQGYDFACLNKQYGVVLQIGGSDQWGNITSGIDLTRRLHQNQVFGLTVPLITKADGTKFGKTEGGAVWLDPKKTSPYKFYQFWINTADADVYRFLKFFTFMSIEEINALEEEDKNSGKAPRAQYVLAEQWTRLVHGEEGLQAAKRITECLFSGSLSALSEADFEQLAQDGVPMVEMEKGADLMQALVDSELQPSRGQARKTIASNAITINGEKQSDPEYFFKEEDRLFGRFTLLRRGKKNYCLICWK
B15: tyrS V307Q (protein)
chain: MASSNLIKQLQERGLVAQVTDEEALAERLAQGPIALYCGFDPTADSLHLGHLVPLLCLKRFQQAGHKPVALVGGATGLIGDPSFKAAERKLNTEETVQEWVDKIRKQVAPFLDFDCGENSAIAANNYDWFGNMNVLTFLRDIGKHFSVNQMINKEAVKQRLNREDQGISFTEFSYNLLQGYDFACLNKQYGVVLQIGGSDQWGNITSGIDLTRRLHQNQVFGLTVPLITKADGTKFGKTEGGAVWLDPKKTSPYKFYQFWINTADADVYRFLKFFTFMSIEEINALEEEDKNSGKAPRAQYVLAEQQTRLVHGEEGLQAAKRITECLFSGSLSALSEADFEQLAQDGVPMVEMEKGADLMQALVDSELQPSRGQARKTIASNAITINGEKQSDPEYFFKEEDRLFGRFTLLRRGKKNYCLICWK
B16: tyrS V307P (protein)
chain: MASSNLIKQLQERGLVAQVTDEEALAERLAQGPIALYCGFDPTADSLHLGHLVPLLCLKRFQQAGHKPVALVGGATGLIGDPSFKAAERKLNTEETVQEWVDKIRKQVAPFLDFDCGENSAIAANNYDWFGNMNVLTFLRDIGKHFSVNQMINKEAVKQRLNREDQGISFTEFSYNLLQGYDFACLNKQYGVVLQIGGSDQWGNITSGIDLTRRLHQNQVFGLTVPLITKADGTKFGKTEGGAVWLDPKKTSPYKFYQFWINTADADVYRFLKFFTFMSIEEINALEEEDKNSGKAPRAQYVLAEQPTRLVHGEEGLQAAKRITECLFSGSLSALSEADFEQLAQDGVPMVEMEKGADLMQALVDSELQPSRGQARKTIASNAITINGEKQSDPEYFFKEEDRLFGRFTLLRRGKKNYCLICWK
B17: cdsA L126Q (protein)
chain: MLKYRLISAFVLIPVVIAALFLLPPVGFAIVTLVVCMLAAWEWGQLSGFTTRSQRVWLAVLCGLLLALMLFLLPEYHRNIHQPLVEISLWASLGWWIVALLLVLFYPGSAAIWRNSKTLRLIFGVQTIVPFFWGMLALRAWHYDENHYSGAIWLLYVMILVWGADSGAYMFGKLFGKHKLAPKVSPGKTWQGFIGGLATAAVISWGYGMWANLDVAPVTLLICSIVAALASVLGDLTESMFKREAGIKDSGHLIPGHGGILDRIDSLTAAVPVFACLLLLVFRTL

These proteins were tested against Escherichia coli (laboratory strain) (assay: barcode share on antibiotic plates over drug-free plates; higher = less susceptible). Conditions: antibiotic: gentamicin; 2× MIC (MIC 0.45 µg/mL).
Procedure: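 A pool of E. coli strains, each edited to carry one amino-acid change in an essential protein, was grown for 48 h on minimal glucose agar with or without antibiotic; strain barcodes were sequenced; mean of two replicates.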
With B1 the “fold change of barcode share” value was 0.0286 ± 0.033.
For B2, the “fold change of barcode share” value was < 0.0113.
B3 was tested, and the “fold change of barcode share” value was 0.0628 ± 0.061.
B4 was tested, and the “fold change of barcode share” value was < 0.0178.
B5 was tested, and the “fold change of barcode share” value was 0.291 ± 0.37.
In the case of B6, the “fold change of barcode share” value is reported as 0.0357 ± 0.028.
B7 was tested, and the “fold change of barcode share” value was < 0.0172.
For B8, the “fold change of barcode share” value was < 0.00869.
With B9 the “fold change of barcode share” value was < 0.0173.
In the case of B10, the “fold change of barcode share” value is reported as 0.0301 ± 0.028.
For B11, the “fold change of barcode share” value was < 0.0195.
With B12 the “fold change of barcode share” value was < 0.0156.
With B13 the “fold change of barcode share” value was < 0.0184.
B14 was tested, and the “fold change of barcode share” value was < 0.00618.
In the case of B15, the “fold change of barcode share” value is reported as < 0.01.
For B16, the “fold change of barcode share” value was 0.0192 ± 0.011.
With B17 the “fold change of barcode share” value was < 0.0206.
